In PubChem BioAssay AID493014 (National Center for Advancing Translational Sciences (NCATS), 2011):
Hit rate of the full screen: of about 340,000 compounds, about 170 (0.05%) were called active. Another 26% or so got no clear call; they are omitted. Calls follow the shape of the dose curve; as a rule, active = well fitted inhibition curve with a large enough effect in the signal ratio, with a control signal flat (not every such curve was filed as active); inconclusive = small, poorly fitted or top-dose-only effect, or effect the other way, or a change in a side signal; inactive = flat fitted curve, though single readings scatter; the % refers to the signal ratio. Only a part is listed here, and it is no random draw.

assay: qHTS Assay to Find Inhibitors of Chronic Active B-Cell Receptor Signaling; conditions: ABC-DLBCL IkBa-CBG/CBR reporter, luminescence ratio (green luciferase fused to IkBa over red control in TMD8 lymphoma cells), 4 h; series mostly up to 46.1 µM; activity change, negative = inhibition: at the top concentration
Description: NIH Molecular Libraries Probe Production Network [MLPCN] NIH Chemical Genomics Center [NCGC] MLPCN Grant: 1 R03 DA031086-01A1 PI Name: Dr. R. Eric Davis NCGC Assay Overview: Diffuse large B-cell lymphoma (DLBCL) is the most common category of non-Hodgkin lymphoma, with ~20,000 new cases per year in the United States. DLBCL should be regarded as a collection of different neoplasms. Microarray gene expression analysis has defined two principal types of DLBCL, named for their similarity to normal B cell stages or activation states: a germinal center B-cell (GCB) type, and an activated B-cell (ABC) type. In ABC-DLBCL, a constitutive high-level activity of the NF-kappaB family of transcription factors has been observed (1) and NF-kappaB target genes are more highly expressed in ABC primary tumors than in GCB tumors. Functional studies have shown a constitutive high-level activity of the IkappaB (inhibitor of kappa-B) kinase (IKK) complex. […] Further analysis of DLBCL primary tumors for NF-kappaB target gene expression imply that although CARD11 is required for constitutive IKK activity in all ABC-DLBCL lines, mutations in CARD11 may be the root cause of IKK activation only in lines or tumors with such mutations. In other words, CARD11 mutations may explain NF-kappaB activation in only 10% of ABC-DLBCL cases. […] This process has been termed 'chronic active BCR signaling' (CABS). The goal of this screen is to find small-molecule inhibitors of the CABS pathway found in ABC-DLBCL lines using a cell-based assay that measures IkappaBalpa stability, which has already been extensively validated in the OCI-Ly3 line (PubChem AID:445; REF: 4). […] The assay uses green (CBG68) and red (CBR) emitting beetle luciferases [Chroma-GloTM developed by Promega Corp.] where the green luciferase is fused to IkappaBalpha and the red luciferase is present in its native state. Both luciferase genes are stably present in the TMD8 human ABC DLBCL cell line, but their expression is under the control of tetracycline-inducible promoters. Following the addition of doxycycline to induce expression of the luciferases, the green luminescence in control cultures rises only slowly because the CBG fusion partner IkappaBalpha is targeted by IKK activity for rapid degradation. In contrast, green luminescence rises rapidly in the presence of proteasome inhibitors or IKK inhibitors. The rise in red luminescence of CBR is not affected by proteasome or IKK inhibitors, and serves as normalization for cell number and nonspecific effects. Compounds were screened as a concentration-titration series that ranged from 46 uM to 3 nM.
NCGC Assay Protocol Summary: Cells were seeded in 1536-well plates at 5000 cells/4uL in IMDM medium containing 0.5% FBS, w/o phenol red, 1% penicillin/streptomycin. Then, 23 nL of compounds or DMSO were delivered to each well using a pin tool. One uL 20ng/ml doxycycline was then dispensed into white solid 1536-well plates and the plates were incubated at 37C/5% C02 in a cell incubator for 4 hrs. Then 4 uL luminescent substrate mix (in-house prepared: 150 mM Tris-Cl, pH 7.6, 3 mM MgCl2, 1% Triton X-100, 5 mM DTT, 0.2 mM CoA, 0.15 mM ATP, 5 mM D-luciferin, final concentrations) was added to each well. The plate was incubated at r.t. for 10-15 min. The plates were measured on a ViewLux plate reader for green luminescence (540/20 nm filter) and red luminescence (618/8 nm filter). The green and red luminescent signals were corrected for red and green luminescence filter overlap using previously determined filter calibration constants (determined using the procedure outlined in the Promega Technical Manual; REF 4). The %Activity was determined from the ratio of corrected green/red luminescent values. MG132 were used as control. […] Red luminescent %Activity was normalized to the difference between red luminesence in basal cells (0%Activity) and zero luminescence (-100% Activity). […]
Potency is read from the fitted curve at half-maximal effect.

| Compound | activity change, negative = inhibition | Potency |
| --- | --- | --- |
| C=CC[C@@H](CC(=O)NCCO)C(=O)N[C@@H](C)COC(=O)[C@H](CC=C)CC(=O)OC(C)(C)C | inactive: -2.61% |  |
| Cc1ccc2[nH]c(-c3ccccc3)cc(=O)c2c1 |  | active: 5.62 µM |
| CCO[C@H]1OC(C(=O)Nc2ccccc2)=C[C@@H](c2coc3ccccc3c2=O)[C@@H]1CCCO | inactive: 3.37% |  |
| O=C(NC(Cc1c[nH]c2ccccc12)C(=O)O)/C(=C/c1ccc2c(c1)OCO2)NC(=O)c1ccccc1 (configuration not stated) | inactive: 5.63% |  |
| COc1cc(/C=N/NC(=O)c2[nH]nc3c2CCc2ccccc2-3)ccc1O |  | active: 20.6 µM |
| Cc1ccc(S(=O)(=O)N2CCC[C@H]2C(=O)NCc2ccccc2Cl)cc1 | inactive: -2.57% |  |
| C=CCC[C@@H](Cc1ccc(F)cc1)C(=O)OC[C@@H](Cc1c[nH]c2ccccc12)NC(=O)[C@H](CC=C)CC(=O)N[C@H](CO)Cc1ccccc1 | inactive: -0.0671% |  |
| N#C/C(=C(/O)CCl)c1nnc2n1CCCCC2 | inactive: 0.971% |  |
| COC(=O)c1ccccc1NC(=O)Cn1nnc(-c2ccc(OC)cc2)n1 | inactive: -2.1% |  |
| C[C@H]1CC[C@@]2(O[C@@H](CCO)C[C@@H](O)[C@@H]2O)O1 | inactive: -3.35% |  |
| C[C@@H](C(=O)O)[C@@H]1C[C@@]1(C)[C@@H](NC(=O)OCc1ccccc1)c1ccccc1 | inactive: 3.09% |  |
| CC(=O)O[C@]1(C(C)=O)CC[C@H]2[C@@H]3C=C(C)C4=CC(=O)CC[C@]4(C)[C@H]3CC[C@@]21C | inactive: 2.51% |  |
| CC(=O)NNc1ncnc2c1cnn2-c1ccccc1 | inactive: 14.2% |  |
| OCC[C@H]1C[C@H](O)[C@@H](O)[C@@]2(OCc3ccccc32)O1 | inactive: 7.55% |  |
| CC1CCCC(C)N1NC(=O)c1ccc(Cl)c(S(N)(=O)=O)c1 (configuration not stated) | inactive: -1.98% |  |
| Cc1noc(NS(=O)(=O)c2ccc(N/C=C\C(=O)c3ccccc3)cc2)c1C | inactive: 2.74% |  |
| COC(=O)C1=C(C)N(Cc2ccccc2)C(=NCc2cccc(Cl)c2)N[C@H]1c1cccc(F)c1 | inactive: -0.427% |  |
| CCOC(=O)N1CCN(C(=O)/C(=C\c2cccs2)NC(=O)c2cccs2)CC1 | inactive: -1.3% |  |
| O=C1OC[C@@H]2CCCN2C(=O)[C@@H](CC(=O)N(CCO)Cc2ccccc2)C/C=C\C[C@@H]1Cc1ccc(F)cc1 | inactive: -0.763% |  |

| Compound | activity change, negative = inhibition | Potency |
| --- | --- | --- |
| CCCCN(C)CCNC(=O)CN1C(=O)CSc2ccc(S(=O)(=O)N3CCCCC3)cc21 | inactive: 6.15% |  |
| CC(C)(C)NCC(O)COc1cccc2c1CC(O)C(O)C2 (configuration not stated) | inactive: 0.85% |  |
| CN(C)CCOC(=O)C1(c2ccccc2)CCOCC1 | inactive: -1.43% |  |
| OCC[C@H]1C[C@@H](O)[C@H](O)[C@]2(CCc3ccccc3CO2)O1 | inactive: -0.841% |  |
| COC(=O)[C@@H]1C[C@@]2(O)[C@@H](O)[C@@H](O)[C@@H](O)C[C@H]2N1CC(c1ccccc1)c1ccccc1 | inactive: 1.77% |  |
| NC(=O)N1c2ccccc2CC(=O)c2ccccc21 | inactive: 0.449% |  |
| CCOC(=O)[C@@H]1[C@H]2COc3cc(OC)ccc3[C@@H]2N2C(=O)N(c3ccc(Br)cc3)C(=O)[C@@]12C | inactive: 24.8% |  |
| C=CCn1c(SCCCC)nc(O)cc1=O | inactive: 3.74% |  |
| O=C(Nc1cccnc1)c1coc(=O)c2ccccc12 |  | active: 18.4 µM |
| COc1ccc(C(=O)N/C(=C\c2cccs2)c2nc3ccccc3[nH]2)cc1OC | inactive: -0.173% |  |
| CC(C)(C)OC(=O)C[C@H]1C/C=C\C[C@H](CC(=O)N(CCO)Cc2ccccc2)C(=O)N2CCC[C@H]2COC1=O | inactive: 3.63% |  |
| O=C(C[C@H]1C/C=C\C[C@@H](NC(=O)OCC2c3ccccc3-c3ccccc32)C(=O)O[C@@H](c2ccccc2)CNC1=O)N[C@H](CO)Cc1ccccc1 | inactive: -0.319% |  |
| C=CC[C@H](CC(=O)N[C@H](CO)Cc1ccccc1)C(=O)N[C@H](COC(=O)[C@H](CC=C)CC(=O)OC(C)(C)C)Cc1c[nH]c2ccccc12 | inactive: 8.38% |  |
| O=C(C[C@H]1C/C=C\CC[C@@H](Cc2ccc(F)cc2)C(=O)OC[C@H]2CCCN2C1=O)N[C@H](CO)Cc1ccccc1 | inactive: -4.17% |  |
| COC(C[C@H](O)C[C@H](O)[C@H](C)OCc1ccccc1)OC | inactive: 4.48% |  |
| COC(=O)[C@@H](N)Cc1ccc(O)c(O)c1 | inactive: 0.557% |  |
| Cc1cccc(-n2c3nc(=O)[nH]c(=O)c-3cc3cc([N+](=O)[O-])ccc32)c1 |  | active: 11.6 µM |
| Cc1ccc(C(=O)N/C(=C\C=C\c2ccccc2)C(=O)NCc2ccco2)cc1 | inactive: -13.4% |  |
| CCN1C(=NCCCCO)N[C@@H](c2cccc(F)c2)C(C(=O)OC)=C1C | inactive: -6.62% |  |

| Compound | activity change, negative = inhibition | Potency |
| --- | --- | --- |
| COc1ccccc1N1CCN(/N=C/C=C\c2ccccc2[N+](=O)[O-])CC1 | inactive: 2.13% |  |
| COc1ccc(Cl)cc1NC(=O)/C=C/C(=O)O | inactive: 1.84% |  |
| CC(C)C(NC(=O)c1ccccc1)C(=O)NCCc1ccccc1 (configuration not stated) | inactive: 0.0411% |  |
| NC(=O)C1CCN(c2nc(-c3ccccc3N)cs2)CC1 | inactive: -2.5% |  |
| C#CCNC(=O)C1=C[C@@H](c2ccccc2)[C@H](CCCO)[C@@H](OCC)O1 | inactive: 0.443% |  |
| COc1cccc(NC(=O)c2oc3ccc(S(=O)(=O)N4CCOCC4)cc3c2C)c1 | inactive: 2.23% |  |
| CCCNC(=O)CCn1nc(-c2ccc(C)cc2)c2ccccc2c1=O | inactive: -3.06% |  |
| O=C1NC[C@H](Cc2ccc(O)cc2)N(CC2CCCCC2)C1=O | inactive: 4.96% |  |
| CC(=O)c1cc(-c2ccccc2)n(CC(=O)Nc2ccc(C)c(C)c2)c1C | inactive: -2.34% |  |
| CCOC(=O)[C@@H]1[C@H]2COc3ccc(Br)cc3[C@@H]2N2C(=O)N(c3ccc(Br)cc3)C(=O)[C@]12C | inactive: -22.9% |  |
| Clc1ccc2c(c1)CCc1cccnc1C2=C1CCNCC1 | inactive: 2.01% |  |
| CC(C)(C)OC(=O)C[C@H]1C/C=C\C[C@H](CC(=O)N(CCO)Cc2ccccc2)C(=O)NC[C@H](c2ccccc2)OC1=O | inactive: 3.77% |  |
| O=C(Oc1c(Cl)cc(Cl)c2cccnc12)c1cccs1 |  | active: 23.1 µM |
| COc1cccc(-c2sc3ccc(OC)cc3c2-c2ccc(OCCN3CCCCC3)cc2)c1 |  | active: 18.4 µM |
| COC(C[C@@H]1O[C@@H]1[C@@H](O)[C@@H](C)OCc1ccccc1)OC | inactive: -8.24% |  |
| CC(C)(C)OC(=O)C[C@H]1C/C=C\C[C@H](CC(=O)N[C@@H](CO)Cc2ccccc2)C(=O)N[C@H](C(C)(C)C)COC1=O | inactive: 1.07% |  |
| CN(C)CCC(c1ccc(Br)cc1)c1ccccn1 (configuration not stated) | inactive: -7.28% |  |
| O=C1C2C3c4ccccc4C(c4ccccc43)[C@@H]2C(=O)N1c1cccnc1 (some centres not stated) | inactive: -0.141% |  |
| COc1cccc(/C=N/NC(=O)c2[nH]nc3c2CCc2ccccc2-3)c1 |  | active: 17.8 µM |
